In PubChem BioAssay AID686970 (National Center for Advancing Translational Sciences (NCATS), 2013):
Screen size: about 360,000 compounds; about 6,000 (1.7%) were called active. The inconclusive results got no clear call from the source; some entries with a clear call stand among them for comparison. Calls come from the whole dose curve; as a rule, active = well fitted cell-killing curve with a large enough effect; inconclusive = small, poorly fitted or top-dose-only effect, or effect the other way; inactive = flat fitted curve, though single readings scatter. Potencies of inconclusive entries are left out as doubtful fits.
Potency is the fitted concentration of half-maximal effect; tags give direction and shape of the fitted curve.

Experiment: qHTS for induction of synthetic lethality in tumor cells producing 2HG: qHTS for the HT-1080-NT fibrosarcoma cell line;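 note: NT is the 2HG producing partner of a matched IDH1 knockdown line; nearly all actives have a fitted effect of over 55% in size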;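 for activity, negative = less viability: 0% = DMSO-treated cells and -100% = media-only wells without cells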
Settings: HT-1080-NT fibrosarcoma viability, CellTiter-Glo ATP luminescence, 48 h; activity, negative = less viability: at 46.1 µM (top of the series) unless noted
In short: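 Viability of the 2HG-overproducing fibrosarcoma line after 48 hours of compound exposure at 37 degrees C was determined by luminescence with CellTiter-Glo, and concentration-effect curves were then fitted and categorized.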
In the case of `CN(C)CCNc1nc(Oc2cccc(F)c2)c2sccc2n1`, the Potency is reported as inconclusive [cytotoxic, single point]. With `Cc1cccc(NC(=O)c2cc(=O)n(Cc3ccccc3)c(=O)[nH]2)c1` the Potency was “inactive”. For `CC1(Oc2ccc3ccccc3c2)CCN(Cc2cccn2-c2nccs2)C1` (configuration not stated), the Potency was active: 20.6 µM. With `CCOC(=O)c1c(C)[nH]c(C)c1S(=O)(=O)NCCN1CCN(c2cc(Cl)ccc2C)CC1` the Potency was inconclusive [cytotoxic, single point]. In the case of `Cc1ccc2c(Cl)cc(Cl)c(OCC(=O)Nc3cccc(S(N)(=O)=O)c3)c2n1`, the Potency is reported as inconclusive [cytotoxic, single point]. With `Cn1cccc1Cc1nnc(SCC(=O)N2CCCC2)n1CCc1ccccc1` the Potency was “inactive”. With `C/C(=N/NC(=O)CNC(=O)COc1ccccc1)c1ccco1` the Potency was inconclusive [rising, single point]. For `CCOc1cc2[nH]c(=O)n(Cc3ccc(C(=O)NCCCN4CCC(C)CC4)cc3)c(=O)c2cc1OCC`, the Potency was inconclusive [cytotoxic, single point]. With `COc1ccc(CC(=O)Nc2ccc(F)c(S(=O)(=O)N3CCOCC3)c2)cc1` the activity, negative = less viability was inconclusive: 30.8%. In the case of `COc1ccc(NC(=O)c2cc3ccccc3cc2O)cc1`, the Potency is reported as inconclusive [cytotoxic, single point]. For `CS(=O)(=O)c1ccc2nc(NC3(C(F)(F)F)N=C4SCCN4C3=O)sc2c1` (configuration not stated), the Potency was inconclusive [cytotoxic, full curve]. In the case of `COc1ccc(CNC(=O)c2c(N)n(CCCN3CCOCC3)c3nc4ccccc4nc23)cc1`, the Potency is reported as inconclusive [cytotoxic, single point]. In the case of `CCOC(=O)Cc1csc(NC(=O)Cc2ccccc2)n1`, the Potency is reported as “inactive”. For `COc1cc(NC(=O)c2cccc(Cl)c2)c(OC)cc1NC(=O)CN1CCCCC1`, the Potency was inconclusive [cytotoxic, single point]. In the case of `CCN1C(=O)[C@@H]2[C@H](C1=O)[C@@H]1C(=O)Nc3ccccc3C(=O)N1[C@@H]2c1cccc(C)c1`, the Potency is reported as inconclusive [rising, single point]. For `Cc1ccc(NC(=O)C(C)Sc2nnc3n2CCCCC3)cc1S(=O)(=O)N1CCOCC1` (configuration not stated), the Potency was “inactive”. In the case of `C#Cc1ccc([C@H]2C=C(C(=O)NCc3nc4ccccc4[nH]3)O[C@@H](OCC)[C@@H]2CCCO)cc1`, the Potency is reported as “inactive”. For `S=C(NCCC(c1ccccc1)c1ccccc1)Nc1ccc(Cl)cc1`, the Potency was inconclusive [cytotoxic, single point]. With `CCOc1cc(C(=O)NC(C)CCc2ccccc2)cc(OCC)c1OCC` (configuration not stated) the Potency was inconclusive [cytotoxic, partial curve]. In the case of `Cc1ccc(S(=O)(=O)N(C)C2(C)CCS(=O)(=O)C2)cc1` (configuration not stated), the Potency is reported as inconclusive [cytotoxic, single point]. In the case of `O=C1c2ccccc2C(=O)c2[nH]c(=O)[nH]c21`, the Potency is reported as active: 9.2 µM. For `CC#CC#Cc1cccc(=O)o1`, the Potency was inconclusive [cytotoxic, single point]. For `O=[N+]([O-])c1cccc(S(=O)(=O)N2CCCCC2)c1`, the Potency was “inactive”. For `CCC(=Nc1ccccc1OC)C1=C(O)CC(c2ccccc2)CC1=O` (configuration not stated), the Potency was “inactive”. For `COC(=O)c1ccc(C(=O)OC)c(NS(=O)(=O)c2ccc(NC(C)=O)cc2)c1`, the activity, negative = less viability was inconclusive: 8.41%. For `CC(C)=CCc1c([C@@H]2CCc3ccc(O)cc3O2)cc2c(c1O)OC(C)(C)C=C2`, the Potency was “inactive”. With `O=C(O)c1ccc(NC(=O)c2ccc(COc3ccccc3)o2)cc1` the Potency was inconclusive [cytotoxic, single point]. With `CC(NCCN(C)C)C1CCC2C3CCc4cc(O)ccc4C3CCC12C` (configuration not stated) the Potency was inconclusive [cytotoxic, single point]. In the case of `Cc1cc2n(n1)SC(Nc1ccc(F)c(Cl)c1)N2` (configuration not stated), the Potency is reported as inconclusive [cytotoxic, single point]. For `Cc1nn(-c2nc3ccccc3[nH]2)c(N)c1-c1ccccc1`, the Potency was inconclusive [cytotoxic, single point]. With `COc1ccc(C2=NOC(C(=O)NCc3cccs3)C2)cc1OC` (configuration not stated) the Potency was inconclusive [cytotoxic, partial curve]. In the case of `COc1ccc(Cl)cc1NC(=O)CSc1nc(Nc2ccccc2)nc(N2CCOCC2)n1`, the Potency is reported as “inactive”. With `Cc1nc2ccc(C(C(F)(F)F)(C(F)(F)F)C(F)(F)F)cc2[nH]1` the Potency was “inactive”. For `COCc1cn(CC(=O)c2sc(NC(=O)C(C)(C)C)nc2C)nn1`, the Potency was “inactive”. In the case of `Cc1ccc(OCC(O)CN2CCN(Cc3ccc4c(c3)OCO4)CC2)cc1C` (configuration not stated), the Potency is reported as “inactive”. With `CC(=O)CSc1nnc(-c2ccc(S(=O)(=O)N3CCCC3)cc2)n1C` the activity, negative = less viability was inconclusive: 33.9%. In the case of `O=C(N/N=C/c1ccccn1)c1cc(C2CC2)nc2ccccc12`, the Potency is reported as inconclusive [cytotoxic, partial curve]. In the case of `Cn1ncc2c(O/N=C(\N)c3ccc(C(C)(C)C)cc3)ncnc21`, the Potency is reported as active: 18.4 µM. In the case of `Cc1ccc2nc(NC(=O)c3cc(-c4ccco4)nc4ccccc34)sc2c1`, the Potency is reported as inconclusive [cytotoxic, single point]. With `C[C@@H]1CN([C@@H](C)CO)S(=O)(=O)c2ccc(Br)cc2O[C@@H]1CN(C)C(=O)c1ccc(F)cc1` the Potency was “inactive”. For `Cc1cccc(/C=N/NC(=O)c2cc3c(s2)-c2ccccc2CC3)c1`, the Potency was inconclusive [cytotoxic, single point]. With `C[n+]1ccccc1Nc1cc([N+](=O)[O-])ccc1N` the Potency was “inactive”. In the case of `CC(NC(=O)CCNC(=O)c1ccc(Br)cc1)c1ccc(-n2ccnc2)cc1` (configuration not stated), the Potency is reported as “inactive”. For `CCOC(=O)c1cc2c(=O)n3ccccc3nc2n(Cc2ccco2)c1=NC(=O)c1ccccc1OCC`, the Potency was “inactive”. For `Cc1ccc(S(=O)(=O)n2ccc3c(OCCOCCNCc4ccc(F)cc4)cccc32)cc1`, the Potency was active: 16.4 µM. For `CN[C@H]1C[C@H]2c3[nH]c4ccc(-c5cccc(C)c5)cc4c3CCN2C[C@H]1[C@H](C)O`, the Potency was active: 16.4 µM. In the case of `CCCCn1c(N)c(N(CC(C)C)C(=O)c2ccc(S(=O)(=O)N3CCC(C)CC3)cc2)c(=O)[nH]c1=O`, the Potency is reported as “inactive”.
